# Measurements published in the supplement of paper PMC8728848.
# Some of the results follow.
# B1: CvGal1 (Crassostrea virginica), A7Y0I5 (protein)
# chain: MTYQISKISQPFTSYIPNGLHIGKHLLLRGRVSYGTEAFAINLQQNPEPCNGEVAFHFNPRPGEQQCVRNSFDGGSWMDEERDQPHFPFDEGRSFTLRIEVAEEGFRTYVNGKPYVNFSHRLDLGNVHYLYLTEGAEFYDISYQDRYTLPYKSEIPQQMNVGKAVRIRGASQDNDGFSVNFACDPDNENCAFHFNPRPNEGVVVRNANLGGWGDEERDYEAEFPFHPYNYFDAMFICTDDKYLVHVNDKYFTEFNHRGGVDASSFFNIVGNLDIQDVEYFEPLEDDFVKTIPSGLVKGDVLIFRGFMKPGGDTFSINFMNGYSVEDDIAFHLNPRVGEGQVVMNCCMGGAWGDEEREDIPSPLADREPFEVKVVVKKNKFKVYVNGKKCMKFAARGNLEDIKGVNIKGEAYVYEVKLERKLEDSWEYLPGGFRVGGWVVVQAIPKKGSEGFAINFRTGSDEDSDIAFHFNPRLQENCTIRNSCAGGAWGGEERDQPDFPFEKKDTCEIAIQAQPDRFVTYVNGKRYIEFNHRLPLESITCVELTGRADFFEPKFF
# Experiments:
# Test in all cases: glycan array binding signal (z-score within array); higher = stronger binding
# Conditions in all cases: glycan notation: IUPAC condensed, linker removed
# Fuc(a1-2)Gal = target: Fuc(a1-2)Gal
# In short: (§1)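 Glycan array data were curated from 3228 arrays in the Consortium for Functional Glycomics database and kept only where the protein sequence was available. Glycan names were converted to IUPAC-condensed notation, and columns mapping to the same glycan were averaged. The binding signal is a within-array Z-score, averaged across arrays of the same protein sequence at different concentrations or buffers and across linkers. Negative Z-scores can be read as non-binding.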
# Fuc(a1-2)Gal(b1-3)GalNAc = target: Fuc(a1-2)Gal(b1-3)GalNAc
# In short: as §1
# [1] = target: Fuc(a1-2)Gal(b1-3)GalNAc(a1-3)[Fuc(a1-2)]Gal(b1-4)Glc
# In short: as §1
# [2] = target: Fuc(a1-2)Gal(b1-3)GalNAc(a1-3)[Fuc(a1-2)]Gal(b1-4)GlcNAc
# In short: as §1
# [3] = target: Fuc(a1-2)Gal(b1-3)GalNAc(b1-3)Gal
# In short: as §1
# [4] = target: Fuc(a1-2)Gal(b1-3)GalNAc(b1-3)Gal(a1-4)Gal(b1-4)Glc
# In short: as §1
# [5] = target: Fuc(a1-2)Gal(b1-3)GalNAc(b1-4)[Neu5Ac(a2-3)]Gal(b1-4)Glc
# In short: as §1
# Fuc(a1-2)Gal(b1-3)GlcNAc = target: Fuc(a1-2)Gal(b1-3)GlcNAc
# In short: as §1
# [6] = target: Fuc(a1-2)Gal(b1-3)GlcNAc(b1-2)Man(a1-3)[Fuc(a1-2)Gal(b1-3)GlcNAc(b1-2)Man(a1-6)]Man(b1-4)GlcNAc(b1-4)GlcNAc
# In short: as §1
# [7] = target: Fuc(a1-2)Gal(b1-3)GlcNAc(b1-2)Man(a1-3)[Fuc(a1-2)Gal(b1-3)GlcNAc(b1-2)Man(a1-6)]Man(b1-4)GlcNAc(b1-4)[Fuc(a1-6)]GlcNAc
# In short: as §1
# [8] = target: Fuc(a1-2)Gal(b1-3)GlcNAc(b1-3)Gal(b1-4)Glc
# In short: as §1
# [9] = target: Fuc(a1-2)Gal(b1-3)GlcNAc(b1-3)GalNAc
# In short: as §1
# [10] = target: Fuc(a1-2)Gal(b1-3)GlcNAc(b1-3)[Fuc(a1-2)Gal(b1-3)GlcNAc(b1-6)]GalNAc
# In short: as §1
# [11] = target: Fuc(a1-2)Gal(b1-3)GlcNAc(b1-3)[Fuc(a1-3)[Gal(b1-4)]GlcNAc(b1-6)]Gal(b1-4)Glc
# In short: as §1
# [12] = target: Fuc(a1-2)Gal(b1-3)GlcNAc(b1-3)[Gal(b1-4)GlcNAc(b1-6)]Gal(b1-4)Glc
# In short: as §1
# [13] = target: Fuc(a1-2)Gal(b1-3)GlcNAc(b1-3)[Neu5Ac(a2-6)Gal(b1-4)GlcNAc(b1-6)]Gal(b1-4)Glc
# In short: as §1
# [14] = target: Fuc(a1-2)Gal(b1-3)GlcNAc6S
# In short: as §1
# [15] = target: Fuc(a1-2)Gal(b1-3)[Fuc(a1-4)]GlcNAc
# In short: as §1
# [16] = target: Fuc(a1-2)Gal(b1-3)[Fuc(a1-4)]GlcNAc(b1-2)Man(a1-3)[Fuc(a1-2)Gal(b1-3)[Fuc(a1-4)]GlcNAc(b1-2)Man(a1-6)]Man(b1-4)GlcNAc(b1-4)GlcNAc
# In short: as §1
# [17] = target: Fuc(a1-2)Gal(b1-3)[Fuc(a1-4)]GlcNAc(b1-2)Man(a1-6)[Fuc(a1-2)Gal(b1-3)[Fuc(a1-4)]GlcNAc(b1-2)Man(a1-3)]Man(b1-4)GlcNAc(b1-4)[Fuc(a1-6)]GlcNAc
# In short: as §1
# [18] = target: Fuc(a1-2)Gal(b1-3)[Fuc(a1-4)]GlcNAc(b1-3)[Fuc(a1-3)[Gal(b1-4)]GlcNAc(b1-6)]Gal(b1-4)Glc
# In short: as §1
# [19] = target: Fuc(a1-2)Gal(b1-3)[Fuc(a1-4)]GlcNAc(b1-3)[Gal(b1-4)GlcNAc(b1-6)]Gal(b1-4)Glc
# In short: as §1
# Fuc(a1-2)Gal(b1-4)Glc = target: Fuc(a1-2)Gal(b1-4)Glc
# In short: as §1
# Fuc(a1-2)Gal(b1-4)Glc6S = target: Fuc(a1-2)Gal(b1-4)Glc6S
# In short: as §1
# Fuc(a1-2)Gal(b1-4)GlcNAc = target: Fuc(a1-2)Gal(b1-4)GlcNAc
# In short: as §1
# [20] = target: Fuc(a1-2)Gal(b1-4)GlcNAc(b1-2)Man
# In short: as §1
# [21] = target: Fuc(a1-2)Gal(b1-4)GlcNAc(b1-2)Man(a1-3)[Fuc(a1-2)Gal(b1-4)GlcNAc(b1-2)Man(a1-6)]Man(b1-4)GlcNAc(b1-4)GlcNAc
# In short: as §1
# [22] = target: Fuc(a1-2)Gal(b1-4)GlcNAc(b1-2)Man(a1-3)[Fuc(a1-2)Gal(b1-4)GlcNAc(b1-2)Man(a1-6)]Man(b1-4)GlcNAc(b1-4)[Fuc(a1-6)]GlcNAc
# In short: as §1
# [23] = target: Fuc(a1-2)Gal(b1-4)GlcNAc(b1-2)[Fuc(a1-2)Gal(b1-4)GlcNAc(b1-4)]Man(a1-3)[Fuc(a1-2)Gal(b1-4)GlcNAc(b1-2)Man(a1-6)]Man(b1-4)GlcNAc(b1-4)GlcNAc
# In short: as §1
# [24] = target: Fuc(a1-2)Gal(b1-4)GlcNAc(b1-3)Gal(b1-4)GlcNAc
# In short: as §1
binder,measurement,setting,value
B1,glycan array binding signal (z-score),Fuc(a1-2)Gal,-0.242
same,glycan array binding signal (z-score),Fuc(a1-2)Gal(b1-3)GalNAc,-0.291
same,glycan array binding signal (z-score),[1],3
same,glycan array binding signal (z-score),[2],6.13
same,glycan array binding signal (z-score),[3],-0.263
same,glycan array binding signal (z-score),[4],-0.242
same,glycan array binding signal (z-score),[5],-0.259
same,glycan array binding signal (z-score),Fuc(a1-2)Gal(b1-3)GlcNAc,-0.084
same,glycan array binding signal (z-score),[6],0.602
same,glycan array binding signal (z-score),[7],-0.288
same,glycan array binding signal (z-score),[8],0.324
same,glycan array binding signal (z-score),[9],-0.244
same,glycan array binding signal (z-score),[10],-0.258
same,glycan array binding signal (z-score),[11],2.22
same,glycan array binding signal (z-score),[12],1.11
same,glycan array binding signal (z-score),[13],-0.181
same,glycan array binding signal (z-score),[14],-0.252
same,glycan array binding signal (z-score),[15],-0.22
same,glycan array binding signal (z-score),[16],-0.188
same,glycan array binding signal (z-score),[17],-0.197
same,glycan array binding signal (z-score),[18],-0.21
same,glycan array binding signal (z-score),[19],-0.256
same,glycan array binding signal (z-score),Fuc(a1-2)Gal(b1-4)Glc,-0.245
same,glycan array binding signal (z-score),Fuc(a1-2)Gal(b1-4)Glc6S,-0.243
same,glycan array binding signal (z-score),Fuc(a1-2)Gal(b1-4)GlcNAc,-0.185
same,glycan array binding signal (z-score),[20],-0.262
same,glycan array binding signal (z-score),[21],0.157
same,glycan array binding signal (z-score),[22],-0.053
same,glycan array binding signal (z-score),[23],0.459
same,glycan array binding signal (z-score),[24],0.07
